From publication PMC11869525 come the findings set out here.

These are yes or no findings as the source states them, for the method shown. Some entries that bind do so weakly or less than the wild type.

Assay [1] has as its target theta (θ) subunit of the Pol III core, His-tagged (E. coli) (UniProt P0ABS8). The assay can be described thus: co-purification; α, His-θ and ε co-expressed in E. coli Acella2; lysate on His-Trap HP, then Hi-Trap Heparin HP, then Superdex 200 16/600 size exclusion. Background: Size exclusion chromatography separates by hydrodynamic size, large species first.
The target of assay [2] is Pol III α-subunit L1128S, with a 10X histidine tag on its N-terminus (E. coli) (UniProt P10443). Briefly: pull-down; His10-Pol III-α held on HisPur Ni-NTA resin; 1:2 molar ratio of τ-CLC and Pol III-α; rocked at 4 °C for 30 min; binding buffer 20 mM sodium phosphate, 0.5 M NaCl, 20 mM imidazole, pH 7.4; 13 washes; elution with 500 mM imidazole; Western blot with antibodies to α or τ; both purified. In general terms: A western blot detects proteins with antibodies after separation by electrophoresis.

Assay [3] deals with Pol III α-subunit, WT, with a 10X histidine tag on its N-terminus (E. coli) (UniProt P10443). Described as above.
Assay [4] addresses Pol III α-subunit L1097S, with a 10X histidine tag on its N-terminus (E. coli) (UniProt P10443). The description is as above.
Assay [5] deals with Pol III α-subunit L1097/8S, with a 10X histidine tag on its N-terminus (E. coli) (UniProt P10443). The description is as above.
Assay [6] has as its target Pol III α-subunit Y1119A, with a 10X histidine tag on its N-terminus (E. coli) (UniProt P10443). Described as above.

Take “Pol III α-subunit L1097/8S of the Pol III core (αεθ) (from UniProt P10443 1-1160) (enzyme)”: the binding result in assay [1] is listed as “binds”.

Consider “Pol III α-subunit L1097S of the Pol III core (αεθ) (from UniProt P10443 1-1160) (enzyme)”, for which the binding result in assay [1] is “binds”.

Turning to “Pol III α-subunit L1128S of the Pol III core (αεθ) (from UniProt P10443 1-1160) (enzyme)”, the binding entry in assay [1] is recorded as “binds”.

On to “Pol III α-subunit Y1119A of the Pol III core (αεθ) (from UniProt P10443 1-1160) (enzyme)”, for which the binding entry in assay [1] is given as “binds”.

As to “clamp loader complex τ3δδ'ψχ (from UniProt P06710 1-643; P28630 1-343; P28631 1-334; P28632 1-137; P28905 1-147)”, the binding entry in assay [2] is given as “no binding”; in assay [3] it was “binds”; in assay [4] it was “binds weakly”; in assay [5], “no binding”; in assay [6], “no binding”.
